Here are results for 6 molecules from PMC4006704.

Sequences of proteins named here, by UniProt entry; tags and fusion partners are left off. Residues count along the entry.
UniProt P07548: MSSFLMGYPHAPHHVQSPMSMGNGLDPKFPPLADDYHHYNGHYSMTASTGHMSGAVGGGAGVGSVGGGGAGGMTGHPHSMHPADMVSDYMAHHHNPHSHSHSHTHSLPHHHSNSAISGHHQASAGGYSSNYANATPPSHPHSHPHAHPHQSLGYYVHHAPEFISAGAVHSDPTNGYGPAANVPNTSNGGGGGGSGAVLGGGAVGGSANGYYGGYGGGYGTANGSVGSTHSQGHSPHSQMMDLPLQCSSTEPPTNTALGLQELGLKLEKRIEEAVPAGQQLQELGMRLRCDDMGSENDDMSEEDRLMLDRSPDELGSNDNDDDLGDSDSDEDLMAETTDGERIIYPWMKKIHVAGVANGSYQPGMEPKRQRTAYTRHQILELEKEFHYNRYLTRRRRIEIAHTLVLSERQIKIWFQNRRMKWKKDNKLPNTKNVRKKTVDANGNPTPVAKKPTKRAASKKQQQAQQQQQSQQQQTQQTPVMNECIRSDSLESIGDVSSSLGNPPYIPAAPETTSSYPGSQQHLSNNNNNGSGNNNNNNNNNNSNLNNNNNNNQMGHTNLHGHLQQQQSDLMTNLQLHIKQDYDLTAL
UniProt P31264, residues 119-327: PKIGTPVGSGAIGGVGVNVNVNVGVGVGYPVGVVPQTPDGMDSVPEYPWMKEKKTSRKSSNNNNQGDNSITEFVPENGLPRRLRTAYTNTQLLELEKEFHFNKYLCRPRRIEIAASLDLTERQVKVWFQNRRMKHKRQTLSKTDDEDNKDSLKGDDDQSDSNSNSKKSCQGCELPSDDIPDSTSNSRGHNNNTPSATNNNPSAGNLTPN
UniProt P83949: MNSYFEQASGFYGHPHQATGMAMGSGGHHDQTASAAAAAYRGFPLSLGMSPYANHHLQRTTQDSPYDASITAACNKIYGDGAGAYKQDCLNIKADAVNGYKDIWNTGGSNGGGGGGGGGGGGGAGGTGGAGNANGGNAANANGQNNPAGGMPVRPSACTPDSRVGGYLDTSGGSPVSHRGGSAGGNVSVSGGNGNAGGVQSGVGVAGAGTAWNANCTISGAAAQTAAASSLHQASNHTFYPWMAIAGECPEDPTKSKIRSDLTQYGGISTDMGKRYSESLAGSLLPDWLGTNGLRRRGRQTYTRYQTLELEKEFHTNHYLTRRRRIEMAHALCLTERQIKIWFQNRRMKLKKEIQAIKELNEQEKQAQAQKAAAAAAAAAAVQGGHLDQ
UniProt P02833, residues 279-378: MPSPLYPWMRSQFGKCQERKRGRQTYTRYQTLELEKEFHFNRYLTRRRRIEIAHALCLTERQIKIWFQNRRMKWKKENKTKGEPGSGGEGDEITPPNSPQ
UniProt P29555: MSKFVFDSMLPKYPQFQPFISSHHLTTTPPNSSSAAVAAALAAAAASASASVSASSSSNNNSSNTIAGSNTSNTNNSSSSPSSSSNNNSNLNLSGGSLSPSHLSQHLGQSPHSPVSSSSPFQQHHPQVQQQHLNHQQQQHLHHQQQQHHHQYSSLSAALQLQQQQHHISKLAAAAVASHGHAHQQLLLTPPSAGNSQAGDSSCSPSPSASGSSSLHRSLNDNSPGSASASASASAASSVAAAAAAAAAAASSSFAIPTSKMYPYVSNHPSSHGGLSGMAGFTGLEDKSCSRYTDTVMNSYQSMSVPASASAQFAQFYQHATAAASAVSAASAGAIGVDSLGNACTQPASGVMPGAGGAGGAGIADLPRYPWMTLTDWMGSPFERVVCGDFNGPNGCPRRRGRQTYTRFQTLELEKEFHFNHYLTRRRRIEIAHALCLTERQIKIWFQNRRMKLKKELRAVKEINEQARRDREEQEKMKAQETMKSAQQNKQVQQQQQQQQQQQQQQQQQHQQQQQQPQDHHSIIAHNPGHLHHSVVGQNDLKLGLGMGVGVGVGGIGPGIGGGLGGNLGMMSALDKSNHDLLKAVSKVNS

For assay [1], the target named is T1, Med19-VC (full-length Med19 fused to the C-terminal fragment of Venus) (Drosophila melanogaster) (UniProt Q9VVL6).
T1 sequence: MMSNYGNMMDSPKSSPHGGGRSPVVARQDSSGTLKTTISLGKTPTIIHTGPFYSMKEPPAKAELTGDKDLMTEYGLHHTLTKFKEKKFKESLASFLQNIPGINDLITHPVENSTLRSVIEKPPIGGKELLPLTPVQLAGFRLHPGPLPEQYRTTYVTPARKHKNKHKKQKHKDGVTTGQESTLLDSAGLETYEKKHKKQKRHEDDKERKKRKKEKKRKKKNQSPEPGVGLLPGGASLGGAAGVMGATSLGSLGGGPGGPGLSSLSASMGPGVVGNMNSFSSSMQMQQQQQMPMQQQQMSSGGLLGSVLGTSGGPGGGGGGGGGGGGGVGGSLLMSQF
The experiment in a line: split reporter; BiFC with Venus VN and VC fusions co-expressed from UAS constructs in Drosophila embryos under engrailed-Gal4, Ubx-Gal4 or abdA-Gal4 control.

The target in assay [2] is T1, Med19-VC (full-length Med19 fused to the C-terminal fragment of Venus) (Drosophila melanogaster). The experiment in a line: co-IP; transfected Drosophila S2 cells; extracts in IP buffer (50 mM TrisHCl pH 8, 150 mM NaCl, 0.5% NP40, 1 mM EGTA), 4°C, immunoprecipitated with mouse anti-GFP (VC tag) and G-protein Sepharose; Western blots with anti-Med1, anti-Med19, anti-HA.

The target is the same in assay [3]. The description is as above. The source holds these as a separate data set.
The target of assay [4] is GST-Deformed (full-length) (Drosophila melanogaster) (UniProt P07548). The experiment in a line: pull-down; 35S-labelled Med19 (full length or deleted versions) probing immobilised GST-Hox fusions or GST-HDAntp; standard conditions, essentially as in ref. 68 (Figures 1A, 5A); only the target purified.
Assay [5] addresses GST-Pb2 (Proboscipedia middle with HD, a.a. 119–327) (Drosophila melanogaster) (UniProt P31264). The description is as above.
Assay [6] deals with GST-Ultrabithorax (full-length) (Drosophila melanogaster) (UniProt P83949). The description is as above.
Assay [7] addresses GST-Antp4 (Antennapedia C-ter with HD, a.a. 279–378) (Drosophila melanogaster) (UniProt P02833). The assay is described as above.

No constants are given. Whether binding was seen depends on the method and setting. In cells and extracts the contact can be indirect. Some results given as binding are weak or reduced against the parent protein; the word gives no strength. For part of these data: Where a sequence is shown, tags or fusion partners need not be part of it.

Turning to “VN-AbdA (full-length Abdominal-A fused to the N-terminal fragment of Venus) (from UniProt P29555 1-590)”, in assay [1], the binding result is “no binding”. Consider “VN-Ubx (full-length Ubx fused to the N-terminal fragment of Venus) (from UniProt P83949 1-389)”, for which, in assay [1], the binding result is “binds”. On to VN-Dfd (from UniProt P07548 1-586), for which, in assay [1], the binding entry is reported as “binds”. In the case of Ubx-HA (from UniProt P83949 1-389), the binding result in assay [2] is reported as “binds”.

B1: endogenous Med1 (three isoforms) (protein, UniProt Q9VP05 1-1475)
chain: MSGSNAKSSGTGFGSHIPSIEEKNKQIQQETMMEKLRAKYRNKPKSYEEIKKSVRMYFIEKHYPLDPLCKATLQSALDKLQHYIKVTSRHGLVERLESLSRQLGLKFMEDQQLLFISTDMFYVEILLDAAGSLSDVKVHHECKIEQQSSELVACLKSGDFADFTVQLEGLSSIYQLNAEPKVKKKAFVALQAMETDIQSLYQLHLQGHSGDSYSLMTSSSVGLVLPRRGGHPMRLTYFCPPLHLPEGDPKLASGDFTIDQVMRSSYGLSATINLEGSSANKLQTLPTVTLVRDAQTGLEVPTYAQLNQNNSLLMPATFVLRLNKPMPVCLESLKALGLPGLDSVATPPGPPTTVLNLIVQTASKQAIKNTQRGLYVNLPKETHCYFFTDNRKLQGTLVSSLPFTEPAQVPRIVAFLKKQALFYTLLASCVREQQKQYNDMDSTVILEVTAVSFNQITVELQHPYEESLATVDFLLEDGQPTCSVYCLTNEYELLSQKLTRTARKVVSIPMVIYKLLKCWDEEHEFKLHGAIGPGSGSGAIGGGGMSGGGPVSGVGNNFSQFSMDTPTPSDGSLPGGGFANINNLKMDAKSRSLADAFAASTSAAAAIAGLINLKRETDPQSGSSASGTTVSGSSSSSGSAKTSDHDIADKYKNIWKDKTPNLKHCVSITPIPGDGKSGSAGGVSGVEVQRTGGIEIIPLNAQAAIAGGGVTASSSATPTTITITPITGKDPSKDSTKKSTAASAGVGVAAKRPHESSTSSSSTSGCSGSGSSMSSSASSGSSDTQKEKKRKKKRDDSPMGPPEKIYSRQNSPAGGADASATGGVVRKFSSPSSSPKAGGGGQGLMAGVPTARPSPKHSPVYSSPKHNTASNSPKSPFGTHSPKHGSSGKPSMSTLKSAATAATILSPKGDKSSSAVGNTSSGPSASSGSSGATGLVRSFASVGAPPPPPPIPPLASSSGSISSSQSLKKEKTSSASGSSSTSSSATAGVASGGGISPASVAAAVAALKSSQQQMKSVASLSHLAAGGGLGSYAAPSGAGASGAAAVVVGAGAGAGAGASGLELSALRKGMAGGAVSLMTSTAALAPTIPAPTTTVAAGSAASLVSPVSAVVGQGQETAGAAAAATLATATILQQQPQPGAAPTSSCLTTSGGSSDSAGSINPAGASTEYMVKPSSQEGLKLTINKTGSSKSSGTGSGSSSSSGLQAKAKSSSSGATSFAGSTGSTKKQHTGLKPGVNSGPASKKATAAVSSATASSSKHFFQKANSSGNLSSKLSGSGSGGGIPLTKSNSTNSFQEHNAPRRRPSMGALASGSSGGGSGQRKLGSASGGGSGSSGSVSPALSGSMSQPPPRFDHHTDMMTILQYASPTMAASMEGFIKGLHNKFQIPKLSQRGSGGNTTSGRSTPSGSSEPALAGTSSSILGPIASSTGLTEPEAKPPVPPSQSGNEGLLNLSSTAGTPSADGIDEELLASLAGE
As for B1, in assay [3], the binding entry is “binds”.

B2: 35S-labelled full-length Med19 (Mediator complex subunit 19) (protein, UniProt Q9VVL6 1-337)
chain: T1 sequence
modifications: 35S-labelled
For the molecule B2, the binding result in assay [4], in assay [5], in assay [6] and in assay [7] was “binds” each time.
